In PubChem BioAssay AID1768 (National Center for Advancing Translational Sciences (NCATS), 2009):
“And” between values parts separate entries of the source, which are not always exact repeats. Identical values can stand only once. In all, about 270,000 compounds went through this assay and about 620 (0.23%) were called active. This list was built around the results that the source calls inconclusive (neither active nor inactive); the mix of calls is not that of the screen. Calls follow the shape of the dose curve; as a rule, active = well fitted inhibition curve with a large enough effect in the polarisation, with a control signal flat (not every such curve was filed as active); inconclusive = small, poorly fitted or top-dose-only effect, or effect the other way, or a change in a side signal; inactive = no such curve, though single readings can be large or run the other way; the % refers to the polarisation. Where the call is inconclusive, the potency comes from a doubtful curve fit. A note “side channel” means that the fit belongs to a control or component signal, not to the main read-out.
For FP activity change, negative = inhibition in this document: % of control where 0% means no effect.
Potency is read from the fitted curve at half-maximal effect; tags tell the direction and shape of the fitted curve or compound fluorescence and quenching.

Each molecule was assayed against Menin (Homo sapiens) (UniProt O00255) (assay: qHTS Assay for Inhibitors Targeting the Menin-MLL Interaction in MLL Related Leukemias: Competition With Texas Red Labeled MLL-derived Mutant Peptide). Conditions: fluorescence polarization; FP activity change, negative = inhibition: at 61.6 µM (top of the series).
Chain of UniProt O00255 (O00255 whole entry, looked up): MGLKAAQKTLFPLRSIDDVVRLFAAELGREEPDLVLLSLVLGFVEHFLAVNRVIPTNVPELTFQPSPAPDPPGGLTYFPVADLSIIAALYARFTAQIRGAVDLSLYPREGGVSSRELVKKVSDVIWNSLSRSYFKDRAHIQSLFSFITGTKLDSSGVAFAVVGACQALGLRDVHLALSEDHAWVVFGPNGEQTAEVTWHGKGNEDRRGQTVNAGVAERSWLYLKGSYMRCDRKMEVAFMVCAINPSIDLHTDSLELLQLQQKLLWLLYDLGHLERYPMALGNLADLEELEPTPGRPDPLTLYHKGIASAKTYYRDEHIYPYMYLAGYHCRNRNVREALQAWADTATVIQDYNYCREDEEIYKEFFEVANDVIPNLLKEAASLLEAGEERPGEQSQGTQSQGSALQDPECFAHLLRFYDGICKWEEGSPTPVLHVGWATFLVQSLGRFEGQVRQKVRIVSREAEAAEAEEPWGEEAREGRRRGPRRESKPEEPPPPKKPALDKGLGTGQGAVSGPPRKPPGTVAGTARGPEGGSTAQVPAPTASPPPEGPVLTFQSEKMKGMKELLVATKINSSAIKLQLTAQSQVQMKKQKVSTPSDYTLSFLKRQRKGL
For `Cc1cc(C)c(C)c(S(=O)(=O)Nc2ccccc2C(=O)O)c1C`, the “FP activity change, negative = inhibition” value was inactive: 36.8%.
In the case of `COc1cccc(/C=N/n2c(N)c(S(=O)(=O)c3cccs3)c3nc4ccccc4nc32)c1OC`, the Potency is reported as inconclusive: 10 µM [inhibitor, partial curve].
`NC(=O)c1cc(NC(=O)c2cc(Br)c(Br)s2)cc(C(N)=O)c1` was tested, and the Potency was inconclusive: 20 µM [inhibitor, single point].
For `CC1CCN(S(=O)(=O)c2ccc(C(=O)Nc3nnc(-c4ccncc4)o3)cc2)CC1`, the Potency was inconclusive: 20 µM [quencher, side channel, partial curve].
In the case of `COc1ccccc1C(=O)NC1CCCc2ccccc21` (configuration not stated), the Potency is reported as inconclusive: 22.4 µM [inhibitor, partial curve].
In the case of `CCN1C(=O)/C(=C/c2nc3ccccc3c(=O)n2-c2ccccc2)c2ccccc21`, the Potency is reported as inconclusive: 1.26 µM [fluorescent, side channel, full curve].
With `CC(=O)Nc1ccc(Nc2nc(C)c([N+](=O)[O-])c(Nc3ccccc3)n2)cc1` the Potency was inconclusive: 31.6 µM [quencher, side channel, partial curve].
`Cc1ccc(C(OCC(O)CNC(CO)C(O)c2ccc([N+](=O)[O-])cc2)c2ccccc2)cc1` (configuration not stated) was tested, and the Potency was inconclusive: 8.91 µM [inhibitor, single point].
In the case of `Cc1ccc(NC(=O)Nc2nnc(-c3ccncc3)s2)cc1C`, the “FP activity change, negative = inhibition” value is reported as inactive: 3.68%.
With `Cc1nc(SCC(=O)Nc2ccccc2)c2oc3ccccc3c2n1` the Potency was inconclusive: 2.82 µM [inhibitor, partial curve].
In the case of `O=C(c1ccccc1)N(Cc1nc2ccccc2c(=O)[nH]1)C1CCCC1`, the Potency is reported as inconclusive: 39.8 µM [inhibitor, partial curve].
With `COc1ccccc1C(=O)Nc1nc(-c2cccs2)c(NC(C)=O)s1` the Potency was inconclusive: 25.1 µM [quencher, side channel, single point].
For `CC1CN(S(=O)(=O)c2ccc(NC(=O)c3cc(-c4ccccc4O)n[nH]3)cc2)CC(C)O1` (configuration not stated), the Potency was inconclusive: 5.62 µM [quencher, side channel, partial curve].
`COc1ccc(S(=O)(=O)N2CCCCCC2)cc1NC(=O)Cc1cc(OC)c(OC)c(OC)c1` was tested, and the Potency was inconclusive: 14.1 µM [fluorescent, side channel, single point].
In the case of `CCN(CCCNC(=O)c1c(C)cc(=O)oc1C)c1ccccc1`, the Potency is reported as inconclusive: 11.2 µM [inhibitor, partial curve].
`CC1Cc2ccccc2N1C(=O)CSc1nnc(-c2ccccc2)c(-c2ccccc2)n1` (configuration not stated) was tested, and the Potency was inconclusive: 31.6 µM [inhibitor, single point].
`Cc1ccc2nc(NC(=O)c3cccc(-c4cc5ccccc5oc4=O)c3)sc2c1` was tested, and the Potency was active: 22.4 µM.
For `Cc1cc(C(=O)N2CCCC(C(=O)c3ccc4ccccc4c3)C2)n(C)n1` (configuration not stated), the Potency was inconclusive: 25.1 µM [fluorescent, side channel, single point].
`Cc1ccccc1-c1cncnc1N1CCN(C)CC1` was tested, and the Potency was inconclusive: 20 µM [inhibitor, single point].
In the case of `O=C(COC(=O)c1cccs1)c1ccc2c(c1)OCCO2`, the Potency is reported as inconclusive: 35.5 µM [quencher, side channel, single point].
For `O=C(NCc1cccc(Cl)c1)c1ccc(S(=O)(=O)Nc2cccc(C(F)(F)F)c2)cc1`, the Potency was inconclusive: 20 µM [quencher, side channel, single point].
With `CC1CCCCC1NC(=O)C1CCN(c2c3c(nc4ncnn24)CCC3)CC1` (configuration not stated) the Potency was inconclusive: 39.8 µM [inhibitor, single point].
For `Cc1ccc2nc(N(CCCN(C)C)C(=O)c3ccc4c(c3)CCCC4)sc2c1`, the Potency was inconclusive: 1 µM [fluorescent, side channel, full curve, poor fit].
`COC(=O)c1ccc2c(=O)n(Cc3ccc4c(c3)OCO4)c(=S)[nH]c2c1` was tested, and the Potency was inconclusive: 22.4 µM [fluorescent, side channel, single point].
For `O=C(COc1ccc2ccccc2c1)Nc1nccs1`, the Potency was inconclusive: 25.1 µM [quencher, side channel, single point].
With `COc1cc(NC(=O)c2ccc3c(=O)n(Cc4ccco4)c(=S)[nH]c3c2)cc(OC)c1OC` the Potency was inconclusive: 17.8 µM [quencher, side channel, partial curve].
For `Cc1sc(Cc2nc(O)cs2)nc1-c1ccccc1`, the Potency was inconclusive: 28.2 µM [quencher, side channel, single point].
In the case of `COc1ccc(NS(=O)(=O)c2csc(C(N)=O)c2)cc1OC`, the Potency is reported as inconclusive: 0.631 µM [inhibitor, full curve].
With `C=CCCCCCCCCC(=O)NNC1=CC(=O)CC(C)(C)C1` the Potency was inconclusive: 0.708 µM [inhibitor, full curve, poor fit].
In the case of `O=C(Nc1nccs1)c1ccc(COc2ccc(Cl)cc2)o1`, the Potency is reported as inconclusive: 22.4 µM [quencher, side channel, partial curve].
`CCn1c2ccc(OC)cc2c2nc3ccccc3nc21` was tested, and the “FP activity change, negative = inhibition” value was inactive: -3.94%.
For `COc1ccc(OC)c(N(CC(=O)N2CCc3ccccc3C2)S(C)(=O)=O)c1`, the Potency was inconclusive: 3.98 µM [inhibitor, full curve].
For `CCOC(=O)c1c(NC(=S)NC(=O)/C=C/c2cccs2)sc(C)c1C`, the Potency was inconclusive: 3.55 µM [inhibitor, single point].
In the case of `O=C(O)CN1C(=O)/C(=C\c2cc(Br)ccc2OCc2ccc([N+](=O)[O-])cc2)SC1=S`, the Potency is reported as inconclusive: 22.4 µM [quencher, side channel, partial curve].
In the case of `CC(C)Cn1nnnc1S(=O)(=O)CCc1ccccc1`, the “FP activity change, negative = inhibition” value is reported as inactive: -6.48%.
For `COc1ccc(C2(C)NC(=O)N(CC(=O)NCc3ccccc3)C2=O)cc1OC` (configuration not stated), the Potency was inconclusive: 7.08 µM [inhibitor, full curve, poor fit].
`CCOc1ccc(S(=O)(=O)N2CCC(C(=O)OC(C)C(=O)N(C)C3CCCCC3)CC2)cc1` (configuration not stated) was tested, and the Potency was inconclusive: 44.7 µM [fluorescent, side channel, partial curve, poor fit].
For `O=C(OCCNC(=O)c1cc2ccccc2oc1=O)c1cccnc1`, the “FP activity change, negative = inhibition” value was inactive: 7.49%.
With `O=C(NCCN1CCN(C(=O)C(c2ccccc2)c2ccccc2)CC1)C(=O)Nc1ccccc1` the Potency was inconclusive: 22.4 µM [fluorescent, side channel, partial curve, poor fit].
In the case of `Brc1ccc(-c2csc(N/N=C/c3ccco3)n2)cc1`, the Potency is reported as inconclusive: 10 µM [quencher, side channel, partial curve].
With `CCN1CCN(C(=O)CSc2ccc(C)cc2)CC1` the Potency was inconclusive: 28.2 µM [inhibitor, single point].
With `Cn1cc(C2=C(c3cn(CCCSC(=N)N)c4ccccc34)C(=O)NC2=O)c2ccccc21` the Potency was inconclusive: 25.1 µM [fluorescent, side channel, partial curve] and inconclusive: 17.8 µM [fluorescent, side channel, partial curve].
In the case of `O=C(c1cc(Br)ccc1Cl)N1CCN(c2ccccn2)CC1`, the Potency is reported as inconclusive: 15.8 µM [inhibitor, single point].
In the case of `CS(=O)(=O)Nc1cccc(C2=NN(C(=O)c3ccccc3)C(c3cccs3)C2)c1` (configuration not stated), the Potency is reported as inconclusive: 10 µM [quencher, side channel, partial curve].
For `COc1cc(CC(=O)OCC(=O)N2CC(C)CC(C)C2)cc(OC)c1OC` (configuration not stated), the Potency was inconclusive: 0.631 µM [inhibitor, full curve, poor fit].
In the case of `O=c1[nH]c2ccccc2nc1/C=C/c1ccccc1`, the Potency is reported as inconclusive: 14.1 µM [quencher, side channel, partial curve].
For `COc1ccc(N2C(=O)CC(S/C(N)=N/N=C(\C)c3cccs3)C2=O)cc1` (configuration not stated), the Potency was inconclusive: 28.2 µM [quencher, side channel, partial curve].
In the case of `O=C(NC12CC3CC(CC(C3)C1)C2)N1CCC(O)(c2ccc3c(c2)OCO3)CC1`, the Potency is reported as inconclusive: 14.1 µM [inhibitor, partial curve, poor fit].
`Cc1[nH]c2ccccc2c1CCN(Cc1cccs1)C(=S)NC(C)(C)C` was tested, and the Potency was inconclusive: 14.1 µM [inhibitor, partial curve].
With `O=C(O)Cc1ccc(C(=O)c2cccs2)s1` the Potency was inconclusive: 10 µM [quencher, side channel, partial curve].
In the case of `COc1cccc(C(=O)Oc2ccc3ccc(=O)oc3c2)c1`, the Potency is reported as inconclusive: 35.5 µM [inhibitor, single point].
In the case of `CO[C@@]12C[C@@H](COC(=O)c3cncc(Br)c3)CN(C)[C@H]1Cc1cn(C)c3cccc2c13`, the Potency is reported as inconclusive: 8.91 µM [fluorescent, side channel, partial curve].
`Cc1oc2ccc(OCc3cccc(Cl)c3)cc2c1C(=O)O` was tested, and the Potency was inconclusive: 35.5 µM [quencher, single point].
With `Cc1ccc(-c2cc(-c3n[nH]c(=S)o3)c3ccccc3n2)cc1` the Potency was inconclusive: 8.91 µM [quencher, side channel, partial curve].
With `Cc1ccc(-c2nnc(CSc3nnc(COc4cccc5ccccc45)n3-c3ccccc3)o2)cc1` the Potency was inconclusive: 4.47 µM [fluorescent, side channel, full curve].
With `Cc1cc(C)c(NC(=O)CC(=O)c2ccccc2)c(Cl)c1` the Potency was inconclusive: 17.8 µM [fluorescent, side channel, partial curve].
`COc1cc(OC)c2c(-c3ccccc3)cc(=O)oc2c1C(CCN1CCCC(C)C1)c1ccc2c(c1)OCO2` (configuration not stated) was tested, and the Potency was inconclusive: 20 µM [inhibitor, partial curve, poor fit].
